The campaign covered roughly 310,000 compounds. About 2,200 (0.71%) showed an effect of 50% or more. Effects have a minus sign here. The list shows a part of the results.
Each molecule was assayed against human ether-à-go-go-related gene (hERG) potassium channel (human, UniProt Q12809) (assay: primary screen, population patch clamp on CHO cells stably expressing hERG).
Sequence of human ether-à-go-go-related gene (hERG) potassium channel (Q12809 whole entry, looked up): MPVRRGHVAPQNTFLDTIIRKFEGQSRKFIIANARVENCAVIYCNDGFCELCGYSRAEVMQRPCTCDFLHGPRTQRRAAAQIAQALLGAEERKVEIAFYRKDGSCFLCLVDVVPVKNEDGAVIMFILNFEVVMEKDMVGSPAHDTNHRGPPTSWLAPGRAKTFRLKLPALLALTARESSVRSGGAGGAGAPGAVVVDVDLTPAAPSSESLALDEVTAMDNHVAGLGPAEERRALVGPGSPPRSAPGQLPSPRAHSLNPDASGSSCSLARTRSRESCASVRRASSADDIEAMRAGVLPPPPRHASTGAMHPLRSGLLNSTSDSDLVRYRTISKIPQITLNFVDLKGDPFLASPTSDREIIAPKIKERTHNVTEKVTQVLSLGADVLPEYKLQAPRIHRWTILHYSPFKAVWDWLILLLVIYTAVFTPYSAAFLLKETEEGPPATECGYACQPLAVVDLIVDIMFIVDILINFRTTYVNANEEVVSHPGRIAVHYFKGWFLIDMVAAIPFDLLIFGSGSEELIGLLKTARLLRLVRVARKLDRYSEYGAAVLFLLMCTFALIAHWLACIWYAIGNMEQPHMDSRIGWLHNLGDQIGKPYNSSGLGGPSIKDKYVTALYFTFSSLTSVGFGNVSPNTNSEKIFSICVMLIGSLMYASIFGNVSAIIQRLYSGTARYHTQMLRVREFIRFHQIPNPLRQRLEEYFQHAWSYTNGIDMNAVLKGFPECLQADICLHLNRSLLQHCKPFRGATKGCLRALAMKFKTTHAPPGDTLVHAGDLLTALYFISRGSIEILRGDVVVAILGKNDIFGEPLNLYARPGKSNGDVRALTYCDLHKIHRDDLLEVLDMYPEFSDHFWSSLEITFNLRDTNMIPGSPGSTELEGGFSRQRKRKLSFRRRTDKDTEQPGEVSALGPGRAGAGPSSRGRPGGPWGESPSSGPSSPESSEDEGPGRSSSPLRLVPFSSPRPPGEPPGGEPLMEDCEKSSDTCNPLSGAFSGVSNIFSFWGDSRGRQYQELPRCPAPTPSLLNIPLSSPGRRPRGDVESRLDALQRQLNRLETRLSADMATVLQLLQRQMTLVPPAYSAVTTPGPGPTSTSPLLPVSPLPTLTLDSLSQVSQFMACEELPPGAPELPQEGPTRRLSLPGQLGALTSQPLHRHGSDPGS

Row | Compound | hERG current change (%, negative = inhibition) at 1uM
1 | CCOC(=O)c1ccccc1NC(=O)CSc1nnc(COc2ccccc2)n1CC | -8.55%
2 | Cc1cccc(/C=N/n2c(-c3ccccn3)n[nH]c2=S)c1 | 14.4%
3 | Cc1c(C(=O)Nc2ccccc2C(=O)N2CCOCC2)cccc1[N+](=O)[O-] | 6.85%
4 | CCCCNC(=O)N(C)c1nc2ccccc2s1 | 1.8%
5 | Cc1nn(-c2ccccc2)c(N)c1C1(O)C(=O)N(C)c2ccccc21 (stereo not shown) | 15.7%
6 | O=C(NC1CCCCCCC1)C1CCC(CNc2c(N3CCCC3)c(=O)c2=O)CC1 (stereo not shown) | 11.4%
7 | COc1cc(C(C[N+](=O)[O-])c2c(-c3ccccc3)cc3ccccn23)cc(OC)c1OC (stereo not shown) | 13.5%
8 | Cc1cccc(OCc2nnc(SCC(=O)N(C(C)C)C(C)C)n2Cc2ccco2)c1C | -16%
9 | O=C(O)CSc1nnc(-c2ccc(Cl)cc2Cl)n1Cc1ccccc1 | 17.6%
10 | CC1CCN(CC(=O)Nc2nccs2)CC1 | 15.2%
11 | O=S(=O)(Nc1ncccc1O)c1ccc(Cl)cc1 | -0.0709%
12 | O=C(Nc1ccc(Oc2ccccc2)cc1)C1CCN(c2c3c(nc4ncnn24)CCC3)CC1 | -20.2%
13 | COc1cccc(C(=O)NC(Cc2ccccc2)c2ccc3c(c2)OCCCO3)c1 (stereo not shown) | 5.61%
14 | Cc1cccc(CC(=O)Nc2c3c(nn2-c2cccc(Cl)c2)CS(=O)C3)c1 (stereo not shown) | 1.55%
15 | CCCSC1=N/C(=C\c2ccsc2)C(=O)S1 | -0.34%
16 | COc1ccc(OC)c(-c2csc(NC(=O)CSc3ccccc3)n2)c1 | 4.64%
17 | CCOCCCNC(=O)c1cn(C)c(=O)c2cc(OC)c(OC)cc12 | 9.51%
18 | O=c1ccc(=O)n2n1CC(O)C2 | 13.6%
19 | CCOC(=O)C1CCN(C(=O)c2ccc3c(c2)C(=O)N(c2ccccc2C)C3=O)CC1 | 1.29%
20 | Cc1cc(C)c2c(N)c(S(=O)c3ccc(C(C)(C)C)cc3)sc2n1 (stereo not shown) | 12.8%

Row | Compound | hERG current change (%, negative = inhibition) at 1uM
21 | CC(/C=N/n1c(-c2ccccc2)n[nH]c1=S)=C\c1ccco1 | 14.5%
22 | Cc1cc(Cl)ccc1NC(=O)COC(=O)c1nc2nccc(C)n2n1 | 5.85%
23 | CCOC(=O)C1=C(C)OC(N)=C(C#N)C1c1cccs1 (stereo not shown) | 12.9%
24 | COCCn1c(N)c(S(=O)(=O)c2cccs2)c2nc3ccccc3nc21 | -2.64%
25 | COc1ccc(S(=O)(=O)NCCN2CCOCC2)c(C)c1C | 5.93%
26 | O=C(O)[C@H](O)[C@@H](O)C(=O)O | 10.4%
27 | CC(C)CNC(=O)NC(=O)COc1ccc(C=O)cc1 | 6.71%
28 | CCCCOc1ccc(C(=O)N/C(=C/C=C/c2ccccc2)C(=O)O)cc1 | 16.1%
29 | CC(=O)c1cccc(NC(=O)CSc2nc(N3CCCCC3)nc(N3CCCCC3)n2)c1 | 10.3%
30 | Cn1nc(C(C)(C)C)c([N+](=O)[O-])c1C(=O)N1CCOCC1 | 11.7%
31 | CCOc1ccc(NC(=O)CSc2nc3nc4c(cc3c(=O)n2CC)COC(C)(C)C4)cc1 | 11.1%
32 | CN(Cc1ccc(C#CCCO)cc1)CC1CCCN(CCc2ccc(Cl)cc2)C1 (stereo not shown) | 4.81%
33 | Cc1onc(-c2ccccc2Cl)c1C(=O)N1CCN(Cc2ccc3c(c2)OCO3)CC1 | 2.38%
34 | CCN(CCO)Cc1csc2ccc(Br)cc12.Cl | 2%
35 | CC(=O)Nc1cccc(NC(=O)CSc2nc(=O)n(Cc3ccncc3)c3c2CCC3)c1 | -5.91%
36 | C=CCn1c(=O)c2ccccc2n2c(SCc3c(C(=O)OCC)oc4ccccc34)nnc12 | -17.7%
37 | O=C(COc1ccc(Br)cc1)N1CCc2ccccc2C1 | 5.71%
38 | Cc1cccc(NC(=O)N2C3CCCC2CC(NC(=O)C2CC2)C3)c1 (stereo not shown) | 9.69%
39 | Cc1ccc(-n2ncc3c2CCCC3NC(=O)CCCN2CCCCC2=O)cc1C (stereo not shown) | -3.27%
40 | N#CCc1ccc(Oc2ccc([N+](=O)[O-])cn2)cc1 | 7.23%

Row | Compound | hERG current change (%, negative = inhibition) at 1uM
41 | CCOC(=O)c1nnn(-c2nonc2-n2cccc2)c1CN1CCOCC1 | 2.28%
42 | COc1ccc(C(=O)NC(=S)NCc2ccccc2)cc1OC | 21.1%
43 | CCOc1ccc(NC(=O)C2(c3ccc(OC)c(OC)c3)CCCC2)cc1 | 3.68%
44 | CCCS(=O)(=O)N1CCCC(C(=O)N2CCN(c3ccccn3)CC2)C1 (stereo not shown) | 5.85%
45 | CCN(C(=S)Nc1ccc(C(C)=O)cc1)C1CCCCC1 | 7.64%
46 | CC1CCc2nn(CC(=O)Nc3ccc(F)cc3F)cc2C1 (stereo not shown) | 0.897%
47 | C=CCn1nc([N+](=O)[O-])nc1Sc1cccc2cccnc12 | 11.9%
48 | CNC[C@H](CC1CCCCC1)NC[C@H](NCCC1CCCC1)[C@H](C)O | -6.24%
49 | COCc1c(C(=O)OCC(=O)NCCN2C(=O)CSC2=O)oc2ccccc12 | 13.4%
50 | O=C1C(Cc2ccc(O)cc2)NC(=S)N1C1CCCCC1 (stereo not shown) | 9.87%
51 | CCOc1ccc(N(CC(=O)NCC2CCCO2)C(=O)CCC(=O)Nc2ccccn2)cc1 (stereo not shown) | -12.1%
52 | Cc1ccc(-n2c(C)cc(/C=N/Nc3ccc([N+](=O)[O-])cn3)c2C)cc1 | 2.54%
53 | COc1ccc(CC[n+]2cc(/N=C(\C)[O-])on2)cc1OC | -5.15%
54 | Cn1c(=O)n(CC(N)=O)c2ccccc21 | 1.25%
55 | CN1CCN(c2nc3c(c(=O)n(C)c(=O)n3C)n2Cc2ccc(F)cc2)CC1 | 12.1%
56 | CNCCc1c[nH]c2ccccc12 | 12.9%
57 | Cc1cccc(C(CC(=O)NCCc2ccccc2)c2ccccc2)c1O (stereo not shown) | 0.996%
58 | CCOC(=O)C1=C(C)S/C(=C\N(C)C)C1=O | -1.37%

Reference: PMC4336329 (PLoS ONE, 2015)
